Out of some 48,000 compounds screened, about 550 (1.1%) were called active. About 4% were inconclusive and are not listed. No stated cut-off is given here; in the data, active means potency below about 15 µM; inconclusive means mostly about 16 µM to 33 µM; inactive means weaker than that. This is one part of the list. Some results are limits rather than exact numbers.
Potency means the concentration at half of the fitted maximal effect.

Sequence of UniProt P04062 (P04062 whole entry, looked up): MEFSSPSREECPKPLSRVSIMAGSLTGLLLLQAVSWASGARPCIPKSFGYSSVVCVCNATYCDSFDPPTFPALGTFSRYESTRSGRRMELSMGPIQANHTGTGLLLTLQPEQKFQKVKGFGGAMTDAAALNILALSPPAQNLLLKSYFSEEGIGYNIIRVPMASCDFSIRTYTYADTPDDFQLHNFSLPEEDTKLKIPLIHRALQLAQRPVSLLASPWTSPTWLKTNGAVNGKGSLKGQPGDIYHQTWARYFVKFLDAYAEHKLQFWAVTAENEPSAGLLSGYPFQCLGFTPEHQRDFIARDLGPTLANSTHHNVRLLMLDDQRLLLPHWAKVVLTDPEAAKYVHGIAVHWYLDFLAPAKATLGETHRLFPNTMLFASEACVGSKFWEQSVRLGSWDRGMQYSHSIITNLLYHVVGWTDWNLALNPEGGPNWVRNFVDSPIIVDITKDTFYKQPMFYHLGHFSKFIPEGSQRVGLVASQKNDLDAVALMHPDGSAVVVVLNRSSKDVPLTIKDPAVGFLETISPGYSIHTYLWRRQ

The target in the test is Lysosomal acid glucosylceramidase (Homo sapiens) (UniProt P04062). As to the kind of experiment: Glucocerebrosidase.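 Further: the screen sought inhibitors.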 The following applies: purified enzyme, resorufin glucoside fluorescence (screen aimed at inhibitors), 20 min; series mostly up to 77 µM. The essentials:
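Compounds titrated against 0.2 nM normal enzyme, 30 uM resorufin beta-D-glucopyranoside substrate, citrate/phosphate buffer with taurocholate and tween-20, pH 5.9. Reaction ran 20 min at room temperature; fluorescence (Ex 548/Em 600) gave AC50.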
With `CCN(CC)S(=O)(=O)N1CCC(C(=O)NCC2COc3ccccc3O2)CC1` (stereo not drawn), the Potency is inactive: > 76.9 µM.
Under `CCn1cc(CN(C)C(=O)CSc2nc(-c3ccco3)cc(C(F)(F)F)n2)c(C)n1` stands inactive: > 76.9 µM.
For the compound `O=C(COc1ccc(Cl)cc1)N1CCN(c2ncccn2)CC1`, the Potency was inactive: > 76.9 µM.
Regarding `CCOc1cc(C)nc(N2CCCC(C(=O)NCc3ccccc3F)C2)n1` (stereo not drawn), the Potency is inactive: > 76.9 µM.
With `COc1ccc(C2C(C(=O)N3CCC(C)CC3)c3ccccc3C(=O)N2C)cc1` (stereo not drawn), the Potency was inactive: > 76.9 µM.
With `COc1ccc(CC(=O)Nc2cccc(-c3nnc(-c4cccc(C)c4)o3)c2)cc1OC`, the Potency is active: 10.8 µM.
On to `CCOCc1cc(C)[nH]c(=O)c1C#N`, for which the Potency was inactive: > 76.9 µM.
For the compound `O=C(NCc1ccccn1)Nc1ccc(F)cc1`, the Potency was inactive: > 76.9 µM.
Under `Cc1ccc(-c2nnc(SCc3ccccc3F)o2)cc1` stands inactive: > 76.9 µM.
To `CCC(=O)N1CCN(c2ccc(NC(=O)c3ccco3)cc2)CC1` belongs inactive: > 76.9 µM; to `O=C(CSc1nc2c(c(=O)n1-c1ccc(F)cc1)SCC2)Nc1ccc2c(c1)OCO2`, inactive: > 76.9 µM; to `COC(=O)c1nc(NC(=O)c2ccc(Cl)cc2)n[nH]1`, inactive: > 76.9 µM.
Under `Cc1cccc(N(C(=O)CCC(=O)Nc2cc(C)on2)C(C(=O)NC2CCCC2)c2ccncc2)c1` (stereo not drawn) stands inactive: > 76.9 µM.
As for `O=C(COc1cccc(NC(=O)c2ccco2)c1)c1ccccc1`, the Potency is inactive: > 76.9 µM.
To `Cc1cc(=O)oc2cc(OCC(=O)OCC(=O)N3CCc4ccccc43)ccc12` belongs inactive: > 76.9 µM; to `CCS(=O)(=O)N1CCN(C(=O)c2cc(OC)cc(OC)c2)CC1`, inactive: > 76.9 µM; to `CCn1c(=O)cc(SCC(=O)NCc2ccc3c(c2)OCO3)c2ccccc21`, inactive: > 76.9 µM.
With `CCCN1C2=C(C(=O)CCC2)C(c2ccc(O)c(Br)c2)C2=C1CCCC2=O`, the Potency is inactive: > 76.9 µM.
Under `COc1ccc(CNC(=O)C2CCN(S(=O)(=O)N3CCOCC3)CC2)cc1` stands inactive: > 76.9 µM.
Under `CCc1cc2c(=O)c(-c3nc4ccccc4n3C)c(C)oc2c(CN2CCN(C)CC2)c1O` stands inactive: > 76.9 µM; under `COc1cc(C(=O)N2CCN(C(=O)C(Cc3cc(C)ccc3C)NC(C)=O)CC2)cc(OC)c1OC` (stereo not drawn), inactive: > 76.9 µM.
Under `Cc1cc(S(=O)(=O)N2CCN(c3c(C)cccc3C)CC2)ccc1F` stands inactive: > 76.9 µM.
Take `Cc1cc(S(=O)(=O)N2CC(=O)N(CCc3ccccc3)C(=O)C2)ccc1F`: the Potency was inactive: > 76.9 µM.
In the case of `O=C(CN(CCc1ccccc1)C(=O)CNS(=O)(=O)c1ccccc1)NCc1ccco1`, the Potency is inactive: > 76.9 µM.
To `S=c1[nH]nc(-c2ccccc2Cl)n1CC1CCCO1` (stereo not drawn) belongs inactive: > 76.9 µM; to `O=C1NCCN1C(=O)N(c1ccccc1)c1ccccc1`, inactive: > 76.9 µM; to `CCOc1cccc2cc(-c3cn4cc(C)ccc4n3)c(=O)oc12`, inactive: > 76.9 µM.
Regarding `Cc1cccc(CS(=O)(=O)Cc2ccc(C(=O)NCc3cccnc3)o2)c1`, the Potency is inactive: > 76.9 µM.
As for `CC(C)[C@H](NC(=O)NCCc1ccc(Cl)cc1)C(=O)O`, the Potency was inactive: > 76.9 µM.
Under `O=C(CSc1nc2ccccc2c(=O)n1Cc1ccco1)c1ccc(F)cc1` stands inactive: > 76.9 µM; under `COc1ccccc1-c1nc(SCc2ccccn2)n[nH]1`, inactive: > 76.9 µM; under `COCc1c(C(=O)OCC(=O)c2c(N)n(CC(C)C)c(=O)n(C)c2=O)oc2ccccc12`, inactive: > 76.9 µM.
`COc1ccc(C)cc1NC(=O)CSc1nnc(COc2ccccc2)n1Cc1ccco1`: the Potency was inactive: > 76.9 µM.
To `Cc1ccc(CNC(=O)CCS(=O)(=O)c2ccc(Br)s2)o1` belongs inactive: > 76.9 µM; to `Cc1ccc(NC(=O)c2ocnc2C)cc1Cl`, inactive: > 76.9 µM; to `O=S(=O)(Nc1nc2ccccc2nc1NCCO)c1cccc(Cl)c1`, inactive: > 76.9 µM.
For the compound `COc1ccc2c(c1OC)C(=O)N(c1nccs1)C2`, the Potency result was “inactive”.
Under `Cc1ccccc1CN1CCNC1=O` stands inactive: > 76.9 µM; under `O=C(Nc1cccc(Cl)c1)c1cnn2cccnc12`, inactive: > 76.9 µM.
As for `COc1ccc(OCC(O)COc2ccc(OC)cc2)cc1`, the Potency was inactive: > 76.9 µM.
Take `COc1cc2c(cc1OC)C(c1ccncc1)CC(=O)N2` (stereo not drawn): the Potency is inactive: > 76.9 µM.
Turning to `O=C(CSCCO)Nc1cccc2ccccc12`, the Potency is inactive: > 76.9 µM.
As to `CCc1c(C)[nH]c2ccc(C)cc2c1=O`, the Potency was inactive: > 76.9 µM.
To `Cc1c(C)c2ccc(OCC(=O)N(C)C)c(C)c2oc1=O` belongs inactive: > 76.9 µM; to `O=C(Nc1ccc(Cl)cc1C(=O)NCc1cccnc1)c1ccco1`, inactive: > 76.9 µM; to `CC1=NC(C(F)(F)F)(C(F)(F)F)C(C#N)=C(C)N1`, inactive: > 76.9 µM.
Under `COc1cc(S(=O)(=O)NCCc2ccc3c(c2)OCO3)ccc1-n1cnnn1` stands inactive: > 76.9 µM; under `O=C1CSC(c2cccs2)N1c1ccccc1` (stereo not drawn), inactive: > 76.9 µM.
Under `COc1ccc(Cl)cc1Nc1nc(C)cc(=O)[nH]1` stands “inactive”; under `Cc1cccc(C(=O)NC2CC(C)(C)NC(C)(C)C2)c1`, inactive: > 76.9 µM.
As for `Cc1ccc(NCc2nnc(SCC(=O)N(Cc3ccccc3)C(C)(C)C)o2)c(C)c1`, the Potency is inactive: > 76.9 µM.
For the compound `Cc1ccc(C)c(Cn2c(=O)n(CCC(=O)NCc3ccco3)c(=O)c3ccccc32)c1`, the Potency is inactive: > 76.9 µM.
`CN(C)S(=O)(=O)c1ccc(S(=O)(=O)N(Cc2ccccn2)Cc2ccco2)cc1`: the Potency is active: 6.66 µM.
To `COc1ccc(-c2nc(C#N)c(N3CC(C)OC(C)C3)o2)cc1OC` (stereo not drawn) belongs inactive: > 76.9 µM; to `Nc1cc(=O)[nH]c(SCC(=O)Nc2ccc(Br)cc2)n1`, inactive: > 76.9 µM; to `O=C(NC1CCCC1)C(c1cccs1)N(C(=O)c1ccco1)c1ccc2c(c1)OCCO2` (stereo not drawn), inactive: > 76.9 µM.
`O=C(NCCCN1CCOCC1)c1cc(-c2cccs2)on1`: the Potency was inactive: > 76.9 µM.
Under `CC1CCCc2sc3nc(NCc4ccco4)n4ncnc4c3c21` (stereo not drawn) stands inactive: > 76.9 µM.

Source of the values: PubChem BioAssay AID360 (National Center for Advancing Translational Sciences (NCATS), 2006).
